Test results: patent publication US20240254223A1 (NOVIMMUNE, published 2024)

Legend:
[1] = biological target: T1, high affinity trimeric IL-2R (IL-2Rα, IL-2Rβ and IL-2Rγ) on HEK-Blue IL-2 cells (UniProt P01589 22-272; P14784 27-551; P31785 23-369); experiment: cell-based or functional assay
T1 sequence (looked up) 1: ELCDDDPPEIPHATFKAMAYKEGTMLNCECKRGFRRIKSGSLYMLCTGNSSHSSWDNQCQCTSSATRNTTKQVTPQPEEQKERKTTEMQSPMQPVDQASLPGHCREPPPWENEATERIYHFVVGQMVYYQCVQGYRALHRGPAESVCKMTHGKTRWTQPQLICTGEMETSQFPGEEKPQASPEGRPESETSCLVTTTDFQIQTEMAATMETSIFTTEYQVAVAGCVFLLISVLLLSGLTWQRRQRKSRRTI
T1 sequence (looked up) 2: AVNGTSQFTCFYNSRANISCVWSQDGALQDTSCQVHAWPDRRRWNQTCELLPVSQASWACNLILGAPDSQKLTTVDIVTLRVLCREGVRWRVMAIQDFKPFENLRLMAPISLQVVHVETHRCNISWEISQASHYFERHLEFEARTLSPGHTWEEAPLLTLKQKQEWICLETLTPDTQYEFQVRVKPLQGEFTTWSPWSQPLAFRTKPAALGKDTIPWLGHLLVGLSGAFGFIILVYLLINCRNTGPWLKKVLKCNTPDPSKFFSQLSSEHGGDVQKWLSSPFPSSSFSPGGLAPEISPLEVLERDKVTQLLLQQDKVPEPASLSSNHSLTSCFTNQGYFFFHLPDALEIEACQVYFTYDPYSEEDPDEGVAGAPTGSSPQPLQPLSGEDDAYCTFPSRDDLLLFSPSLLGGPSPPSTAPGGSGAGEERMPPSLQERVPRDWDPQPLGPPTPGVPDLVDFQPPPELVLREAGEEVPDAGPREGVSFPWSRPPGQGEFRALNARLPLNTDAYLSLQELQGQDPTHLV
T1 sequence (looked up) 3: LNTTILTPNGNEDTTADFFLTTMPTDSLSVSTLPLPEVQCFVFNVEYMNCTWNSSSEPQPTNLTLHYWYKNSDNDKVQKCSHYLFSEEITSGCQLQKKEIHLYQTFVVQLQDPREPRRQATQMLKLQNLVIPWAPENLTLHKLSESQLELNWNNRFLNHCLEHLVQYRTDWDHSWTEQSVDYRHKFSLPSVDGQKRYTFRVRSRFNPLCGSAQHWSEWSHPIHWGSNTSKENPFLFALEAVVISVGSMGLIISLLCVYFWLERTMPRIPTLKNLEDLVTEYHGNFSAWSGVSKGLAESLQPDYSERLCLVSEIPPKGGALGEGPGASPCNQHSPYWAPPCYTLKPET

[2] = biological target: T2, CD47 at the surface of Peak cells (human, UniProt Q08722); experiment: flow cytometry, Peak cells, before cleavage
T2 construct: whole, on cells; also called cell surface CD47
Method: (§1) Binding activity of antibody-cytokine/receptor fusions before and after cleavage was also evaluated by flow cytometry. Peak cells derived from HEK 293 which are human cells expressing CD47 were used to evaluate masking efficacy and binding recovery to CD47 by flow cytometry. Peak cells were diluted in cold FACS buffer (PBS, 2% BSA) to 1.2×10⁶ cells/mL. 3×10⁵ cells/well were added in a 96 well V-bottom plate. The plate was then centrifugated for 5 min at 1300 rpm, 4° C. Supernatants were removed and cells were washed twice using FACS buffer. A serial dilution of antibody-cytokine/receptor fusions previously digested with MMP-9 or not digested as described above was prepared in FACS buffer. An irrelevant antibody was included. Then, 150 μL of each diluted antibody were added in corresponding well and incubated for 30 min at 4° C. Cells were washed twice with FACS buffer and 100 μL of a mouse anti human Fc-PE conjugated secondary antibody were added and the plate was incubated for 20 min at 4° C. Cells were then washed twice with FACS buffer. Finally, 150 μL of SYTOX blue dead cell stain (ThermoFisher) diluted to 1/5000 in FACS buffer were added before detection by flow cytometry with Cytoflex (Beckman Coulter). Acquisition was performed with 10000 events for each well. Data were analyzed by FlowJo software.

His-tagged human CD47 = biological target: T3, His-tagged human CD47 (human, UniProt Q08722 part only, limits assumed); experiment: BLI, His-CD47 on HIS1K sensor, antibody 15 µg/mL
T3 construct: loaded on HIS1K biosensors at 2.5 µg/mL; also called target antigen; not shown: His tag
Method: The capacity of the masking domains to inhibit binding activity of the antibody was evaluated by Bio-Layer Interferometry (BLI). […] Binding experiments were performed to evaluate the masking efficiency and the binding recovery after cleavage of the masking domains. BLI was performed on an Octet RED96 system (Sartorius). His-tagged human CD47 was diluted at 2.5 μg/mL in Kinetic Buffer (KB) (Sartorius) and loaded on HIS1K biosensors (anti-His tag antibody biosensors, Sartorius) for 300 seconds. Loaded biosensors were dipped into antibodies diluted at 15 μg/mL in KB for 300 seconds to monitor association. Then, biosensors were transferred in KB for dissociation for 60 seconds. Binding profiles were then analyzed with ForteBio Data Analysis software.

[3] = biological target: T2, CD47 at the surface of Peak cells; experiment: flow cytometry, Peak cells; EC50 before / EC50 after cleavage
Method: as §1

| Binder | EC50 before cleavage IL-2, HEK Blue IL-2 αβγ reporter assay [1] | EC50 ratio (BC/AC), HEK Blue IL-2 αβγ reporter assay [1] | EC50 [2] | Binding before cleavage (BLI) (His-tagged human CD47) | Binding recovery (BC/AC) [3] |
| --- | --- | --- | --- | --- | --- |
| pNOVI V2K K91_D1_IL-2_1_153_CM1_IL-2Rβ_27_239_CM1 VKCK IL-2Rα_1_238_CM1_VHCH (antibody, human IgG1, kappa, masked K91 fusion, uncleaved; also called n500; construct No 500) light: [about 150 residues left out]GGGGSVHMPLGFLGPGGGGSAVNGTSQFTCFYNSRANISCVWSQDGALQDTSCQVHAWPDRRRWNQTCELLPVSQASWACNLILGAPDSQKLTTVDIVTLRVLCREGVRWRVMAIQDFKPFENLRLMAPISLQVVHVETHRCNISWEISQASHYFERHLEFEARTLSPGHTWEEAPLLTLKQKQEWICLETLTPDTQYEFQVRVKPLQGEFTTWSPWSQPLAFRTKPAALGKDGGGGSVHMPLGFLGPGGSDIQMTQSPSSLSASVGDRVTITCNVDQVIANWLNWYQQKPGKAPKLLIYAASSLQSGVPSRFSGSGSGTDFTLTISSLQPEDFATYYCQQMHPRAPKQFGQGTKVEIKRTVAAPSVFIFPPSDEQLKSGTASVVCLLNNFYPREAKVQWKVDNALQSGNSQESVTEQDSKDSTYSLSSTLTLSKADYEKHKVYACEVTHQGLSSPVTKSFNRGEC heavy: ELCDDDPPEIPHATFKAMAYKEGTMLNCECKRGFRRIKSGSLYMLCTGNSSHSSWDNQCQCTSSATRNTTKQVTPQPEEQKERKTTEMQSPMQPVDQASLPGHCREPPPWENEATERIYHFVVGQMVYYQCVQGYRALHRGPAESVCKMTHGKTRWTQPQLICTGEMETSQFPGEEKPQASPEGRPESETSCLVTTTDFQIQTEMAATMETSIFTTEGGGGSVHMPLGFLGPGGS[about 120 residues left out][about 100 residues left out][human IgG1 Fc left out] | 0.14 nM | 10 | 17.5 nM | 0.7 nm | 21 |
| pNOVI V2K K91_Q1_IL-2 Q126T CM1_VKCK_IL-2Rα_CM1_VHCH (antibody, human IgG1, kappa, masked K91 fusion with IL-2 Q126T, uncleaved; also called n1030; construct No 1030) light: [about 150 residues with changes left out]GGGGSVHMPLGFLGPGGSDIQMTQSPSSLSASVGDRVTITCNVDQVIANWLNWYQQKPGKAPKLLIYAASSLQSGVPSRFSGSGSGTDFTLTISSLQPEDFATYYCQQMHPRAPKQFGQGTKVEIKRTVAAPSVFIFPPSDEQLKSGTASVVCLLNNFYPREAKVQWKVDNALQSGNSQESVTEQDSKDSTYSLSSTLTLSKADYEKHKVYACEVTHQGLSSPVTKSFNRGEC heavy: ELCDDDPPEIPHATFKAMAYKEGTMLNCECKRGFRRIKSGSLYMLCTGNSSHSSWDNQCQCTSSATRNTTKQVTPQPEEQKERKTTEMQSPMQPVDQASLPGHCREPPPWENEATERIYHFVVGQMVYYQCVQGYRALHRGPAESVCKMTHGKTRWTQPQLICTGEMETSQFPGEEKPQASPEGRPESETSCLVTTTDFQIQTEMAATMETSIFTTEGGGGSVHMPLGFLGPGGS[about 120 residues left out][about 100 residues left out][human IgG1 Fc left out] | 0.89 nM | 4 | 6.3 nM | 0.7 nm | 17 |
| pNOVI V2K K91_C_IL-2_1_153_CM1 VKCK IL-2Rα_1_185_CM1_IL-2Rβ_27_239_CM1 VHCH (antibody, human IgG1, kappa, masked K91 fusion, uncleaved; also called n490; construct No 490) light: [about 150 residues left out]GGGGSVHMPLGFLGPGGSDIQMTQSPSSLSASVGDRVTITCNVDQVIANWLNWYQQKPGKAPKLLIYAASSLQSGVPSRFSGSGSGTDFTLTISSLQPEDFATYYCQQMHPRAPKQFGQGTKVEIKRTVAAPSVFIFPPSDEQLKSGTASVVCLLNNFYPREAKVQWKVDNALQSGNSQESVTEQDSKDSTYSLSSTLTLSKADYEKHKVYACEVTHQGLSSPVTKSFNRGEC heavy: ELCDDDPPEIPHATFKAMAYKEGTMLNCECKRGFRRIKSGSLYMLCTGNSSHSSWDNQCQCTSSATRNTTKQVTPQPEEQKERKTTEMQSPMQPVDQASLPGHCREPPPWENEATERIYHFVVGQMVYYQCVQGYRALHRGPAESVCKMTHGKTRWTQPQLICTGGGGSVHMPLGFLGPGGSAVNGTSQFTCFYNSRANISCVWSQDGALQDTSCQVHAWPDRRRWNQTCELLPVSQASWACNLILGAPDSQKLTTVDIVTLRVLCREGVRWRVMAIQDFKPFENLRLMAPISLQVVHVETHRCNISWEISQASHYFERHLEFEARTLSPGHTWEEAPLLTLKQKQEWICLETLTPDTQYEFQVRVKPLQGEFTTWSPWSQPLAFRTKPAALGKDGGGGSVHMPLGFLGPGGS[about 120 residues left out][about 100 residues left out][human IgG1 Fc left out] | 0.16 nM | 12 | 13.4 nM | 0.7 nm | 27 |
| pNOVI V2K K91_IL-2_CM1_VKCK_IL-2Rα WO LIN_VHCH (antibody, human IgG1, kappa, masked K91 fusion, uncleaved; IL-2Rα joined to VHCH without linker; also called n281; construct No 281) light: [about 150 residues left out]GGGGSVHMPLGFLGPGGSDIQMTQSPSSLSASVGDRVTITCNVDQVIANWLNWYQQKPGKAPKLLIYAASSLQSGVPSRFSGSGSGTDFTLTISSLQPEDFATYYCQQMHPRAPKQFGQGTKVEIKRTVAAPSVFIFPPSDEQLKSGTASVVCLLNNFYPREAKVQWKVDNALQSGNSQESVTEQDSKDSTYSLSSTLTLSKADYEKHKVYACEVTHQGLSSPVTKSFNRGEC heavy: ELCDDDPPEIPHATFKAMAYKEGTMLNCECKRGFRRIKSGSLYMLCTGNSSHSSWDNQCQCTSSATRNTTKQVTPQPEEQKERKTTEMQSPMQPVDQASLPGHCREPPPWENEATERIYHFVVGQMVYYQCVQGYRALHRGPAESVCKMTHGKTRWTQPQLICTGEMETSQFPGEEKPQASPEGRPESETSCLVTTTDFQIQTEMAATMETSIFTTE[about 120 residues left out][about 100 residues left out][human IgG1 Fc left out] | 0.06 nM | 4 | 8.5 nM | 1 nm | 9 |
